B1: GBRAP_160_4050 (protein)
chain: EEEKEELLEMVDEAEAEILEVLAEEGAAAALTMFAGRFGEIIMEAAEDEEASDELVDELAEIEDAGLAALRANADASPEELAAIIRDAAARIKEAIKKHL
B2: GBRAP_128_3569 (protein)
chain: SAEEKLKKAKELLEKIVESDVEEARVLARELVRLMAEADPETREKITELALEYLPKLTAEKLDVLADVLREERPKADPDTANLLAEIEVEALNEREEKEE
B3: GBRAP_14_3875 (protein)
chain: MEEIKKIIDDMVAEIVAFVKEVSPEIAPEVEKRLNEIREKTLARIEETGDPLAAFDAMEEEMIAAMEEITADLPEEDRTAILAELRVRLAEARYRIDEVL
B4: GBRAP_26_5455 (protein)
chain: IEAAVDAAEERLLATFDEVLDPETAAAMKTVVLTEAEEIEEVVEAHPNDAAAIKAAVDAAVADIREEMDLLEVPADARAKITAALDAEAARIKAAIEAAA
B5: GBRAP_43_5778 (protein)
chain: SKELVDGAYEAALLAAEEPEIDDDTKVKMINLAFELAADEGYIDEEKLEKIIEAAGKSLSAEALKKIRDRLLKIAKEHPELKEEFEKAAEKVEKYIKAKE
B6: GBRAP_95_7061 (protein)
chain: EEDKEAALDDVLAYAARVELGDESAVPRLAAALVEALKLGVLEEAAKELSDEVLLRALREAADRADPETVLALIEAALKATGNEELAAAARAYLEARLAA
B7: GBRAP_80_6834 (protein)
chain: MEEELEAVVKELEKVDKEIAKLVREVIEIAKELGVPLETLLRLAKAILELAKVDKEKARKLVKELLEKMKEAKKAGDKEAALAYLVDAESDALLEVEEAE
B8: GBRAP_52_6018 (protein)
chain: MRARLRAFVEEVLALVRAGKLEEAKALIEELVASLNEEEIEVLIDVVAERAAAAAPEDHDAVWRMAEMIAEAMEKAGKDEVLADLLEARVAAALYAAEQR
B9: GBRAP_117_2577 (protein)
chain: AEEKEAVKERLRATVRAAGKALAASKTLSPEERAKVRAAVAAEIDAAVREALKVLSKEEVLDIVEEELLDFDAETYFEIMSFVEDAIQKIEDEEEAKRLA
B10: GBRAP_52_6333 (protein)
chain: SEEEIEKLAEELVKAIKAGDLEKAKKLAEEAVEKLSSEEILKLAKIVAEKVAKEDDEVHVRFTEIADYLAELVREKKGDEETAAEILGIVATTLYAAELA
B11: GBRAP_160_4713 (protein)
chain: SETAEERKKYVDEEFERAKKLIEGETIEQRAIIVEGTVGEIIMEFVEDEKATDELIDEVIEIGDELVKTILENPNLTLEEIKELIDEAREKMKEAIDKHL
B12: GBRAP_52_6309 (protein)
chain: MEEEARRLAEEIVALVLAGDREGARALIREIARTKSEEEILLIARELARLAETADAETLDAIAEAMLMMEDVLEEEGVDPEVIAEALGIVTTALYKRELA
B13: GBRAP_160_4475 (protein)
chain: SEKVKEAVEEMEEDVEETLEENEDLPPKDLLLAVEVTLGSNLMEWVEKGLLSDEQEDIVIEAMDELRRLREESENMSVEEVKERAREIVREMKARILAAA
B14: GBRAP_160_4266 (protein)
chain: SPEREKLIEEIKEDKEEILELIDEITPEEARTLAVVELGSHLMEAIELGLVTDEEEDELMEVIDELEEELEKNKDAPPEVHKEIIEKHYEKAIEILKKAK
B15: GBRAP_52_6278 (protein)
chain: SEEEVKKVAEEIVELIKEGKLEEALKLAREAAKKFSLEEVLRLGELLIEQIKELSPEQLELALEVMEELAREIEERFGEEEEASILEARAAAAAYENLQR
B16: GBRAP_160_4860 (protein)
chain: SEKLKRALEIIEKAREEALALIDESPVSQHAAFARAVAGDALLELIEEGLINEELEEELDKIIDKLEAELKAGADASTEEHKALVEKAFEEMKKAIKELS
B17: GBRAP_139_3744 (protein)
chain: AAAEAVAARARALVAALEEDREAALRALAELLASLDEELREVAARAIAEALLEKDYETAERILDELARLLREEHGDEDGAEIVEAEKNRTLALIAVREEE
B18: GBRAP_160_4862 (protein)
chain: SEKLEKALKILEEARDRALAAIDEAPASQRAAIADAEMGEAIMELIEEGLLNDELEEKLNEIRDELRAELKANADASVEEHKAMVEKAFKKMEEVIKELM
B19: GBRAP_166_4878 (protein)
chain: MKEEIKKEVEEAVKKFEEEIKKANKEEQFELLIELAEKLAEAKKKGLDDEDLLEAVRRVLKAVKEVGGSPRVAAGIIENEVEFDEELREKLRKIVEEVEK
B20: GBRAP_128_3604 (protein)
chain: SVEEAKERAKEALEKIKNSNLEEAKKIAKELAEWLLTLSLEEVKAAVETIKELAPELSEDKLLILQDALHEAAKKATPEKQEVLLDALGVLGEEAYEKTE
B21: GBRAP_83_6953 (protein)
chain: KEKLVVAANDDNVEEAVKIAADLEKTGKYEVTLEFIGTVEAAEKLIEEMKKAWEEGVKIDVDILLEGATEEEVEEVKKKMEKAAKEAGADIKVNVYALPK
B22: GBRAP_128_3462 (protein)
chain: SVEEAVAWAEKTLKEIEKADLEEARKLFEELAERLATLSLEEVEAVVEVIEKHLPKLTAEKLEILAEVLAEARPRFDPEKRALVADVESDALLLAEELEE
B23: GBRAP_78_6603 (protein)
chain: EVEELLDKAIEELDKAVELTKQLPEDVRNEVLGLLVDALSYLLEAFEDKPDLENLEKALESAKEALKLVETIDTEEAKELKKEITKAIELLEKAIKLLKE
B24: GBRAP_160_4373 (protein)
chain: SEELEKLAKEIKELKKEFKEEAKDLSPEEARTLAIGVLSEVAALVFENEAVSEEVEDKIMKIIDEAIKKIRENEDASVEEIVEITEKALEEIIKLIEEEA
B25: GBRAP_184_5064 (protein)
chain: KIYEETIEVTNLEEAKEKMKELKEKIKNFKGDLIVHLKLPEFNKEIVKAILDELAEIKKAGYAKNITLGIDADTTEEEVDFLISTADEKGINVVVALREE
B26: GBRAP_11_2682 (protein)
chain: RKEALERAAELAERAAELAERLLEEGVDNEELLEELRRALEELRRLVKEHLDEAHRTLVEIAEEELEEALADPENAAAHIERLLAAARVLRYNLEEELEE
B27: GBRAP_35_5572 (protein)
chain: ETLEETTEMIIATIEDLTLAVEDMPLEDAVAAANSLVDTAEELVEEVKDNPELLKKLAEALKKLLEALEKYYGDSEAAKEAAAKVKKVIEKAEKLAKEAE
B28: GBRAP_160_4306 (protein)
chain: KEEYEKLKKEIKEIAEEAIKMLEGQSAEERKTIVKVALGEIRLLVDESPAISDELEEEIDKIADEAEEYLDANPDLTEEEVKELLKEAVEKILKLIEEHS
B29: GBRAP_11_2845 (protein)
chain: KKEKLKEIAEQADKVIALLDELIAAGTDDEELWKKLEEQLKKLQELVEKYLDESEKELAKLAKEELEEAKADPANAEQHLNNAKAFVSTLQGLVLLEIEE

The values below come from the supplement of paper PMC12632987.

The full ranking holds about 4,500 sequences; the median of “median log2 fold change of GCK-ALFA target abundance (FLAG IP / Myc IP barcode read proportion)” is about 0.078, and the lowest 2% start at about -0.6. The list shows a part of the results.

GABARAP, O95166, sequence (O95166 whole entry, the tested form may be a part): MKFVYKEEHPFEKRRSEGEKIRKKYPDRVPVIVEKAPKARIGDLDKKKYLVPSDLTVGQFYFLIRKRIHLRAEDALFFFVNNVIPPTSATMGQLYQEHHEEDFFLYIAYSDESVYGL

This experiment deals with GABARAP, O95166. Description: median log2 fold change of GCK-ALFA target abundance (FLAG IP / Myc IP barcode read proportion) (log2 ratio); each designed protein is fused to an ALFA-tag nanobody in HEK293 cells to bring the named protein to FLAG-tagged glucokinase (GCK); Myc marks an untargeted standard; higher = target protein stabilised (more abundant). Particulars: target protein: 3xFLAG-MCP-GCK-ALFA reporter; HEK293 landing pad (RPLP). In outline:
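HEK293 landing-pad cells received a recombined binder library fused to the ALFA nanobody and were induced with 2 μg mL^−1 doxycycline, then transfected with a plasmid encoding a FLAG-tagged target and a Myc-tagged standard. Lysates were collected after 48 h for anti-FLAG and anti-Myc immunoprecipitation, and the circular RNA barcodes were reverse transcribed, amplified and sequenced. Target abundance for each binder is the median log2 ratio of FLAG to Myc barcode read proportions. Barcodes had to reach a proportion of at least 10^−7 in both replicates, each binder needed at least 3 barcodes per replicate, a pseudocount of 10^−6 was applied, and the two replicates were pooled.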
Take B1: the “median log2 fold change” value was -0.126.
As to B2, the “median log2 fold change” value came out at 0.233.
Turning to B3, the “median log2 fold change” value is 0.256.
Turning to B4, the “median log2 fold change” value is 0.211.
Consider B5, for which the “median log2 fold change” value worked out at 0.392.
Take B6: the “median log2 fold change” value stood at 0.23.
In the case of B7, the “median log2 fold change” value turned out to be 0.276.
Regarding B8, the “median log2 fold change” value is -0.0984.
The value for B9 was 0.0186; that for B10 was 0.239.
The value for B11 was -0.628; that for B12 was -0.117.
Take B13: the “median log2 fold change” value was -0.285.
Consider B14, for which the “median log2 fold change” value is -0.228.
As for B15, the “median log2 fold change” value is -0.176.
The value for B16 was 0.104; that for B17 was 0.418.
In the case of B18, the “median log2 fold change” value amounted to 0.286.
As for B19, the “median log2 fold change” value came out at 0.283.
As to B20, the “median log2 fold change” value is 0.308.
With B21, the “median log2 fold change” value turned out to be 0.243.
For the molecule B22, the “median log2 fold change” value is 0.102.
Regarding B23, the “median log2 fold change” value amounted to 0.0502.
As to B24, the “median log2 fold change” value stood at 0.0306.
The value for B25 was 0.127; that for B26 was -0.882; that for B27 was 0.245.
Turning to B28, the “median log2 fold change” value was -0.0648.
In the case of B29, the “median log2 fold change” value was determined as 0.0872.
